# Assay results: PMC7819943, “Rice protein-binding microarrays: a tool to detect cis-acting elements near promoter regions in rice”
# The other results are listed elsewhere or left out.
# Target: T1, OsWOX13 (Oryza sativa, UniProt Q5QMM3 1-267)
# T1 sequence: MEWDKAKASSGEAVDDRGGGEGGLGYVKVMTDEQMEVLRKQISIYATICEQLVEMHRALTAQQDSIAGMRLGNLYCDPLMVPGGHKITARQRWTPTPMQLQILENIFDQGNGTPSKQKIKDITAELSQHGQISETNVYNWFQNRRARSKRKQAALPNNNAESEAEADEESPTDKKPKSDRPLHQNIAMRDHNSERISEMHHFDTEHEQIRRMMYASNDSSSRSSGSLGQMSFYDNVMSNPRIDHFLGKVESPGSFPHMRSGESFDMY
# Test: protein-binding microarray (RPBM); PBS, 2% BSA, 51.3 ng/ul salmon testes DNA, 50 uM zinc acetate, 200 nM TF, 25 C, 1 h; high values mean tight binding
# Settings: protein: recombinant; tags: N-terminal polyhistidine and DsRed monomer fusion (pET32a); label: CyDye5-dUTP incorporated in the synthesized complementary strand; 3' TTTTT single-stranded linker to array surface; dsDNA, one strand shown
# Summary of the method: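 The binding signal is fluorescence intensity per feature, in arbitrary units, read on an Axon 4000B scanner. Polyhistidine- and DsRed-tagged transcription factors (N-terminal fusions) from E. coli BL21-CodonPlus were purified on Ni–NTA and applied at 200 nM for 1 h at 25 °C to a double-stranded, BSA-blocked custom Agilent array in buffer with 50 µM zinc acetate.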
row,Sequence,binding signal
1,CAGCATTTGTGATTGGGTAGTATGGGTTGCTCGATCTTTCCGGAGTCACCTAGTGCAG,15000 fluorescence intensity (a.u.)
2,AGATGGATTGAAAATAATGTGAATAAATATACATGAAATCCGGAGTCACCTAGTGCAG,7890 fluorescence intensity (a.u.)
3,AATAATAATTATAAAATTACTTAAAATAAGATGGATAATCCGGAGTCACCTAGTGCAG,23700 fluorescence intensity (a.u.)
4,GATGTATAATTTGTCCTGCATTTTCTGAAGGGATTCGTGGCGGAGTCACCTAGTGCAG,5310 fluorescence intensity (a.u.)
5,TTGCAATTGCTGATTGTACATCTGAAATGGTTTCCTTTTGCGGAGTCACCTAGTGCAG,14000 fluorescence intensity (a.u.)
6,ATAATGAAATTTCATAGGGGAGGGGCTGGGCTTTATAGGGCGGAGTCACCTAGTGCAG,4610 fluorescence intensity (a.u.)
7,CAAGAAATGACTTAATTAGAAAACCTCTTTGGAGCACCCACGGAGTCACCTAGTGCAG,11000 fluorescence intensity (a.u.)
8,ATGCGAGCATAATTAATTGAGTTTTAATTATTTCAAACTTCGGAGTCACCTAGTGCAG,14100 fluorescence intensity (a.u.)
9,GAGATTTAATTTTGATTGGAATGCATATTCAGAATACTATCGGAGTCACCTAGTGCAG,44200 fluorescence intensity (a.u.)
10,CATATAAATTGCGAGACGAATCTCTTGAGCCTAATTACGCCGGAGTCACCTAGTGCAG,12300 fluorescence intensity (a.u.)
11,CAAAACAATTATTGGGCCAAGACATTTCCCTTGATGGGATCGGAGTCACCTAGTGCAG,15000 fluorescence intensity (a.u.)
12,AGTTGCATTATTAATCACATCCACTGATATAACGATTTTGCGGAGTCACCTAGTGCAG,3970 fluorescence intensity (a.u.)
13,CATATAATTTCCTGTCTTAAGTTACAGAATGTGGATCAGTCGGAGTCACCTAGTGCAG,16200 fluorescence intensity (a.u.)
14,TAGTGTAATTTGAGTGACCCCAGTAATATTTTCCTATAGCCGGAGTCACCTAGTGCAG,4310 fluorescence intensity (a.u.)
15,GTCCCGATTGTCTTGTAAATTATGCTACTTGGCCATGAAACGGAGTCACCTAGTGCAG,8100 fluorescence intensity (a.u.)
16,GTTGATATAACATGTAAGTGTACTTTTAGTAGATGGGTTGCGGAGTCACCTAGTGCAG,3250 fluorescence intensity (a.u.)
17,ACTATATAATTAAAATAGATTTCACCCGTTGCAACGCACGCGGAGTCACCTAGTGCAG,13300 fluorescence intensity (a.u.)
18,TCGACCGATTGATCGATTGCTCACTGCCATATACATGATACGGAGTCACCTAGTGCAG,9930 fluorescence intensity (a.u.)
19,CAATGTTTTATCCTCAATCACACTTATAGTCTACCCTTACCGGAGTCACCTAGTGCAG,3960 fluorescence intensity (a.u.)
20,AACATGTATGATCAAATTAGATTTATGATTGACTACAATGCGGAGTCACCTAGTGCAG,38500 fluorescence intensity (a.u.)
21,TGAATTAATTTTCATCAATTCCCACTTTCCCAGTACAGTGCGGAGTCACCTAGTGCAG,29500 fluorescence intensity (a.u.)

row,Sequence,binding signal
1,TTGAATGACTACGAATTTGTTTAAATATTTGCATTCCATCCGGAGTCACCTAGTGCAG,7180 fluorescence intensity (a.u.)
2,GCAAATCAATAAACCTGACTGCATGAGAAACAGAGTTTGTCGGAGTCACCTAGTGCAG,5950 fluorescence intensity (a.u.)
3,AACTGACACGTGATGACTTAGCTGGAAGCGGCACGGACGGCGGAGTCACCTAGTGCAG,3320 fluorescence intensity (a.u.)
4,ATTAATTATTGGCGACGTACGGACAGGACCAAGAAATCTCCGGAGTCACCTAGTGCAG,20000 fluorescence intensity (a.u.)
5,ACCGAAATTTTGTTCTGTTGTTACTATTGGTAGTTAGTTTCGGAGTCACCTAGTGCAG,4190 fluorescence intensity (a.u.)
6,TCCATAAATTTGTGGGAGCTAGGAATATCCAACTTCAAATCGGAGTCACCTAGTGCAG,4240 fluorescence intensity (a.u.)
7,AGTGACACGGTTCTAATTTTGTGAAATTTCAGTGGCAAGGCGGAGTCACCTAGTGCAG,3680 fluorescence intensity (a.u.)
8,AAATTAGATTTGACTATGGCTGTGTTTAGTTCACACCAAACGGAGTCACCTAGTGCAG,7300 fluorescence intensity (a.u.)
9,TTACTTTTGCCTTTAATTAATTCATAGCTTTTATGTGCATCGGAGTCACCTAGTGCAG,4510 fluorescence intensity (a.u.)
10,AGTTGAAATTTTCAAATGTTGATTTTACTTGAAATAAAGGCGGAGTCACCTAGTGCAG,4760 fluorescence intensity (a.u.)
11,CCGCCATCAAACAATCAAGACTCAAGAGGCTTCCAGCTGGCGGAGTCACCTAGTGCAG,5620 fluorescence intensity (a.u.)
12,TAAATTTAAACGGTAAATTAAGGAGAGGGAGGTCATTCTTCGGAGTCACCTAGTGCAG,6560 fluorescence intensity (a.u.)
13,TTTGACATTAACGGAAGTCAATCCAATAACAAATGGGATACGGAGTCACCTAGTGCAG,7320 fluorescence intensity (a.u.)
14,GCTTGACTTCTTCATTCCTCAATCTCCTAACAACCATCACCGGAGTCACCTAGTGCAG,4180 fluorescence intensity (a.u.)
15,GTCCAATCCACAATAATTTATACACGCGTATATACTTCACCGGAGTCACCTAGTGCAG,5720 fluorescence intensity (a.u.)
16,TTTCAATTAAACTTTCAATTTTAGCGTGAACTAAACACACCGGAGTCACCTAGTGCAG,17300 fluorescence intensity (a.u.)
17,TCACTGTCAATTAGACTTTCAGAAGACGAGTAACGGTCAACGGAGTCACCTAGTGCAG,24900 fluorescence intensity (a.u.)
18,CAATCAATTGGTTGATTTTAGCACACCACAGTACTATTCACGGAGTCACCTAGTGCAG,6680 fluorescence intensity (a.u.)
19,AGGCATAATTGAGGCCACCCGTTGCAGTGAAAGGTTTGGTCGGAGTCACCTAGTGCAG,22900 fluorescence intensity (a.u.)
20,ATTAAATTTGAGATGAAATCTGGAGAAGCTTTGAATAACTCGGAGTCACCTAGTGCAG,5720 fluorescence intensity (a.u.)
21,CACTTGAAATTACTGATATTCAACTGTTCACATCTTCCAGCGGAGTCACCTAGTGCAG,3190 fluorescence intensity (a.u.)
